About 9,100 (2.8%) of roughly 320,000 compounds were called active. Inconclusive means that the source gave no clear call. Such entries were picked first, then a sample of the others. Calls come from the whole dose curve; as a rule, active = well fitted activation curve with a large enough effect; inconclusive = small, poorly fitted or top-dose-only effect; inactive = no such curve, though single readings can be large or run the other way. Potencies of inconclusive entries are left out as doubtful fits.
Assay: qHTS Assay for Rab9 Promoter Activators; note: nearly all actives have a fitted effect of over 60% in size; for activation, negative = inhibition: % of control where 0% means no effect
Settings: Huh7 Rab9 promoter-luciferase reporter, luminescence, 24 h; series mostly up to 9.22 µM; activation, negative = inhibition: at the top concentration
Summary of the method: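 Steps: seed 1500 Huh7 Rab9-luc cells per well, rest 2 h at 37 °C; add compound in DMSO; incubate 24 h; add luciferase reagent, 10 min ambient; read luminescence.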
Potency is the fitted concentration of half-maximal effect; tags give direction and shape of the fitted curve.

| SMILES | activation, negative = inhibition | Potency |
| --- | --- | --- |
| Cc1nnc(NC(=O)CSc2nnc3c(n2)[nH]c2ccc(Br)cc23)s1 | inactive: -0.307% | – |
| CCOc1ccc(C(=O)N2CCN(Cc3ccccc3)CC2)cc1 | inactive: 5.45% | – |
| CC(C)c1ccc2oc(-c3ccc(NC(=O)c4ncn[nH]4)cc3)nc2c1 | – | inconclusive [activator, partial curve] |
| CC(C)CCn1cnc2c(NCc3ccccc3)ncnc21 | – | inconclusive [activator, single point] |
| O=C(O)CSc1nnc(-c2ccncc2)n1CCc1ccccc1 | – | inconclusive [activator, single point] |
| Cc1nc2ccc(S(=O)(=O)N3CCCCC3)cc2s1 | inactive: 1.92% | – |
| O=C(CSc1cccs1)Nc1ccc(Cl)cc1 | – | inconclusive [activator, partial curve] |
| CCN1/C(=C\C=C2\C(=O)N(C)C(=S)N2C)Sc2ccccc21 | – | inconclusive [activator, single point] |
| COC(=O)Cc1ccc(NC(=S)N2CCCC(CO)C2)cc1 (configuration not stated) | – | inconclusive [activator, partial curve] |
| Cc1ccc2nc(-c3ccc(SCC(=O)Nc4nc(C)cs4)nc3)[nH]c2c1 | – | active: 2.82 µM |
| O=C(Nc1cccc(OC(=O)c2ccco2)c1)c1ccco1 | inactive: -1.2% | – |
| CCOc1ccc(C(=O)Nc2nc(C)c(C(=O)OC)s2)cc1 | – | inconclusive [activator, partial curve] |
| CCOc1ccc(C(=O)c2ccc(OCC)c(N)c2)cc1N | – | inconclusive [activator, partial curve] |
| COc1ccc(CC(=O)NC2CCS(=O)(=O)C2)cc1 (configuration not stated) | inactive: 0.693% | – |
| Cn1c(=NC(=O)COc2ccccc2)sc2ccccc21 | – | active: 2 µM |
| O=C(N/N=C/c1ccc(F)cc1)c1ccccc1 | – | active: 2 µM |
| CC(C)NC(=O)c1[nH]nc2c1CCc1ccccc1-2 | – | active: 3.55 µM |
| Cn1nnnc1SCc1nc2ccccc2s1 | – | inconclusive [activator, partial curve] |
| O=C(O)/C=C/c1cnn(-c2ccccc2)c1 | – | active: 0.447 µM |
| O=C(/C=C/c1c(Cl)cccc1Cl)Nc1ccncc1 | – | inconclusive [activator, partial curve] |
| O=C(O)c1ccc(-c2ccccc2Cl)o1 | inactive: 0.637% | – |

| SMILES | activation, negative = inhibition | Potency |
| --- | --- | --- |
| Cc1nc2ccccc2c(=O)n1/N=C/c1ccc(N(C)C)cc1 | – | inconclusive [activator, single point] |
| COc1ccc(C(=O)CN2C(=O)c3ccccc3S2(=O)=O)cc1 | – | inconclusive [activator, partial curve] |
| Cc1nc2ccc(NC(=O)Cc3ccsc3)cc2s1 | – | inconclusive [activator, single point] |
| Nc1nc(-c2cc(-c3ccccc3)no2)cs1 | – | active: 1 µM |
| CC(=O)c1cc(Cl)ccc1OCC(=O)NC1CCCC1 | – | inconclusive [activator, partial curve] |
| COc1ccc(OCc2nc3ccccc3[nH]2)cc1 | – | active: 0.562 µM |
| CCOc1ccc(-c2nnc(-c3ccco3)o2)cc1 | – | active: 0.355 µM |
| CCOc1cc(/C=C2/C(=O)NN(c3cccc(Cl)c3)C2=O)ccc1O | inactive: -0.365% | – |
| Nc1ccc(-c2cn3cccnc3n2)cc1 | – | inconclusive [activator, partial curve] |
| O=C(NC(=S)NC1CCCCC1)c1ccc(F)cc1 | – | active: 3.98 µM |
| CC(C)CN1CCN(Cc2ccc3ncccc3c2)CC1CCO (configuration not stated) | inactive: -4.61% | – |
| Cc1csc(SCC(=O)Nc2nc3ccccc3s2)n1 | – | inconclusive [activator, partial curve] |
| CC(=O)c1ccc(NC(=O)Nc2ccc3c(c2)nc(C)n3C)cc1 | – | active: 3.16 µM |
| O=C(Cn1nnc(-c2ccccc2)n1)NC1CCS(=O)(=O)C1 (configuration not stated) | inactive: 1.27% | – |
| O=C(CSc1ccc(-c2ccc(Br)cc2)nn1)NCC1CCCO1 (configuration not stated) | – | inconclusive [activator, single point] |
| CC(C)Oc1ncnc2c1[nH]c1ccccc12 | inactive: -15.6% | – |
| Cc1cc(NC(=O)CSc2nc3c(cc2C#N)CCC3)no1 | – | active: 0.501 µM |
| CCOc1ccccc1N(CC(=O)N1CCCCCC1)S(=O)(=O)c1ccc(C)cc1 | inactive: -1.54% | – |
| Cc1ocnc1C(=O)Nc1ccc(Cl)cc1 | – | inconclusive [activator, partial curve] |
| CCOC(=O)Cn1cnc2c(cnn2-c2ccc(OC)cc2)c1=O | – | inconclusive [activator, single point] |
| CC(C)C[C@@H](CSc1ccccc1)N1CCN(CC(C)C)CCC1=O | – | inconclusive [activator, partial curve] |

| SMILES | activation, negative = inhibition | Potency |
| --- | --- | --- |
| CCOc1ccc(Nc2cc(C)c3ccccc3n2)cc1 | – | inconclusive [activator, single point] |
| COc1ccc2c(c1)Cc1sc(NC(=O)c3ccco3)nc1-2 | – | active: 1.78 µM |
| O=C(COC(=O)c1cccc(S(=O)(=O)N2CCN(c3ccc(F)cc3)CC2)c1)NCC1CCCO1 (configuration not stated) | – | inconclusive [activator, single point] |
| CCOCC(=O)Nc1cccc(-c2nc3cccnc3s2)c1C | inactive: 0.848% | – |
| Cc1cccc(NC(=O)c2cc3ccccc3o2)c1 | – | active: 1.41 µM |
| CN1C(=O)/C(=C\c2ccc(N(C)C)cc2)OC1=S | – | inconclusive [activator, single point] |
| CC1CCCCN1C(=O)CN1C(=O)CSc2ccc(S(=O)(=O)N3CCOCC3)cc21 (configuration not stated) | inactive: -0.0077% | – |
| CN(C)S(=O)(=O)c1cccc(C(=O)Nc2ccc(Cl)cn2)c1 | – | inconclusive [activator, single point] |
| O=C(COC(=O)C1CCC1)Nc1ccc(OC(F)F)cc1 | inactive: 0.345% | – |
| O=C(O)c1ccc(-c2ccc(-c3ccccc3)cc2)s1 | – | active: 0.001 µM |
| Cc1ccc(C(=O)Nc2cccc(Oc3ccccc3)c2)o1 | – | inconclusive [activator, single point] |
| Cc1ccsc1C(=O)NCCc1c[nH]c2ccccc12 | – | inconclusive [activator, partial curve] |
| Fc1ccc(C2=Nc3cccc4cccc(c34)N2)cc1 | – | inconclusive [activator, partial curve, poor fit] |
| Nc1ccc(-c2nnc(-c3ccccc3)o2)cc1 | – | active: 3.98 µM |
| COc1ccccc1C1=NN(C(=S)Nc2ccccc2)C(c2ccco2)C1 (configuration not stated) | – | inconclusive [activator, partial curve] |
| COc1ccc(NC(C)(C)c2nnnn2-c2c(C)cccc2C)cc1 | inactive: -2.6% | – |
| Cc1[nH]n(-c2ccc([N+](=O)[O-])cc2)c(=O)c1/C=N/N1CCOCC1 | – | inconclusive [activator, single point] |
| CCc1ccccc1NC(=O)c1cc2sccc2n1C | – | inconclusive [activator, partial curve] |
| O=C(CN1C(=O)c2ccccc2S1(=O)=O)c1ccc(F)cc1 | – | inconclusive [activator, full curve] |
| CCOc1ccc2nc(N3CCCC(C(=O)NCCCN4CCCCC4)C3)sc2c1 (configuration not stated) | – | inconclusive [activator, partial curve] |
| O=c1cc(-c2ccccc2)nc2cc(-c3ccc(Br)cc3)[nH]n12 | – | inconclusive [activator, partial curve] |

| SMILES | activation, negative = inhibition | Potency |
| --- | --- | --- |
| Cc1c(/C(O)=C2\C(=O)C(=O)N(CCN(C)C)C2c2cccs2)cnn1-c1ccccc1 (configuration not stated) | – | active: 4.47 µM |
| COc1ccc(Cn2c(/C=C/c3ccccc3)nc3ccccc32)cc1 | – | active: 1.26 µM |
| C/C(=N\NC(=O)c1ccco1)c1cc(Cl)sc1Cl | – | inconclusive [activator, single point] |
| C=CCNC(=O)c1ccc2c3n(nc2c1)-c1ccccc1CO3 | – | inconclusive [activator, full curve, poor fit] |
| Cc1ccc2nc(-c3ccccn3)cc(C(=O)N3CCN(c4ncccn4)CC3)c2c1 | inactive: -1.4% | – |
| COCCNc1cc(C)nc2cc(-c3ccc(C)cc3)nn12 | – | inconclusive [activator, full curve] |
| Cc1nn(-c2ccccc2Cl)c(Cl)c1/C=N/Nc1nc2ccccc2s1 | inactive: -31% | – |
| NS(=O)(=O)c1ccc(Nc2nc(-c3ccccc3)cs2)cc1 | – | inconclusive [activator, partial curve] |
| Cc1ccc2c(=O)c(C(=O)NCc3cccs3)c[nH]c2c1 | – | inconclusive [activator, single point] |
| COc1ccccc1N1CCN(/N=C/c2cccc(O)c2)CC1 | – | inconclusive [activator, single point] |
| CCOc1ccc(C(=O)NCC2CCCO2)cc1 (configuration not stated) | inactive: 27.9% | – |
| NC(=O)c1ccc(CSc2nc3ccccc3s2)cc1 | – | active: 2.82 µM |
| C/C(CC(=O)Nc1ccc([N+](=O)[O-])cc1)=N\NC(=O)c1ccccc1O | inactive: -2.1% | – |
| Cc1c(C)n(CCc2ccccc2)c2ncnc(NCCO)c12 | – | active: 1.78 µM |
| CCC(C)c1ccc(NC(=O)c2ccco2)cc1 (configuration not stated) | – | active: 0.316 µM |
| CCc1ccc(OCc2cccc(C(=O)N/N=C\c3cnn(C)c3C)c2)cc1 | – | inconclusive [activator, partial curve] |
| COC(=O)Cn1c(C)nc2c(sc3nc(C)cc(C)c32)c1=O | – | inconclusive [activator, single point] |
| COc1cc(OC)c(OC)cc1/C=N/n1c(C)nc2ccccc2c1=O | inactive: 2.47% | – |
| O=C(N/N=C/c1ccc(-c2cccc([N+](=O)[O-])c2)o1)c1cccs1 | – | inconclusive [activator, partial curve] |

Reference: PubChem BioAssay AID485297 (National Center for Advancing Translational Sciences (NCATS), 2010)
